# The supplement of paper PMC11417369
# ± gives the standard deviation of the averaged measurements. The list shows a part of the results.
# System: PfAP2-G AP2 domain (GST-tagged)
# Test: gcPBM binding intensity (ln(normalized median fluorescence intensity)); higher = stronger DNA binding
# Summary of the method: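 Alexa488 anti-GST antibody, scanned at 488 nm, detected GST-tagged P. falciparum DNA-binding domains that had been expressed in E. coli and incubated for 1 h on an Agilent 4 × 180k array. The array carried primer-extended double-stranded 36-bp intergenic genomic probes and negative controls. Binding intensity is the highest Masliner-normalised natural-log median intensity across replicate spots of either orientation of each probe.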
row,Sequence,gcPBM binding intensity (ln)
1,CTAATATATGTATGCACACACAATATATACATATTT [CACACA_site3360],10.07 ± 0.021
2,ATATTACAAATATAATGTACAAAATATAAATATGCA [XGTACX_site8106],10.7 ± 0.42
3,GTCCTTACTAATTAATTTTAGGCCATATAGTTTGTC [XGTACX_negctrl_site199],10.3 ± 0.17
4,ATTATGGATACATAAACACACATATATATAAAAAAA [CACACA_site4303],10.2 ± 0.3
5,ACATGATAAATAGTCACACATAAATATAATATATAT [CACACA_site5207],10.1 ± 0.28
6,TCGTAAACTTTATGCACACACATATACATATTTCAT [CACACA_site739],10.16 ± 0.064
7,ATACATGTTTTATGTGCACACAAAGTTGTTATGAGG [CACACA_site4032],10.5 ± 0.28
8,AATTATTCATAAAATGCATGTACATGGTTTAATATT [TGCATGCA_site87],10.9 ± 0.57
9,ATAATTATATTTTATTCACACATCGTTATATAGTAA [CACACA_site4743],9.94 ± 0.057
10,ATAATACACAAGCACACACACACACGGATATTTATA [CACACA_site6714],10.3 ± 0.3
11,AAAAAAAAAAAAAAAACACACATATAGATTATTGTA [CACACA_site7797],10.1 ± 0.11
12,TTTTAATTTATCGACACACGCATGAATAGAAATTAG [CACACA_site3361],10.2 ± 0.2
13,TATTTTTATTTTCCTTCACACATTTTTTATATTTTT [CACACA_site5830],9.94 ± 0.17
14,AGACAATATCTTATTTGTACATATGTATTCCTCATA [XGTACX_site5757],10.9 ± 0.38
15,TTATAATTTAATAAATGTACATAAATAATATACATA [XGTACX_site7271],11.2 ± 0.7
16,AACACAATAAAAATTAAAAATGTTAAGTAAATATAA [GTGCAC_negctrl_site60],9.65 ± 0.23
17,ACTTTTTTTTTTTTTTTAGATTACATAAATATAAAT [CACACA_negctrl_site139],10 ± 0.25
18,TATGTATATTTAAATGCATGTGATTATTTTTGACTT [TGCATGCA_site568],9.68 ± 0.099
19,TTATAAATTTAAAAAGTGCATAATAATAACAAAAAG,10.4 ± 0.27

row,Sequence,gcPBM binding intensity (ln)
1,TCTAATGTAATGCATACACACAACTATCCATCAAAA [CACACA_site534],9.945 ± 0.007
2,AAAAAATAAATAAATATACACACCATATATATATTT [CACACA_site2854],9.66 ± 0.16
3,TTAACATTTTAAAAATGTACATTTATATACATAAAT [XGTACX_site922],10.9 ± 0.67
4,AGAAAAATTCTAAGAACATGCAAAAAAATAAAAAAA [TGCATGCA_site293],9.915 ± 0.078
5,TTTTATTTTTCTAGTAGTACTTCTTTTTATAATATA [XGTACX_site1181],11.6 ± 0.87
6,AGTTTACACCTTGTGAGTACATACATACATATATAT [XGTACX_site8793],11.5 ± 0.72
7,TATACCTATAGACACACACACATAAATAGATATATA [CACACA_site6748],10.2 ± 0.33
8,TACACGCATAGACACACACACACACGCATATAAATA [CACACA_site6446],10.3 ± 0.29
9,TTTTTTTTTTTAAATAGTACACATATATATATATAT [XGTACX_site6983],11.3 ± 0.85
10,AAAAAAAAAAAAAAAAGTACAAAAAAAAAAAAAAAA [XGTACX_site4549],11.3 ± 0.73
11,TTTGTTCTATGGAGTTTAAAATGTAATATATATTAA [GTGCAC_negctrl_site151],9.85 ± 0.11
12,ATATATATTAATAGTTGTACTATTATAATATTACAA [XGTACX_site1213],11.1 ± 0.79
13,ATCCTGAACAGAATATGTATAAACAGAAGGAAACAA [CACACA_negctrl_site1805],10.1 ± 0.17
14,TTTTTTTTTTTTTTGTCACACACCTTCATAAGAAAA [CACACA_site1166],10 ± 0.52
15,CACACCATATAATATATATATATGTATATATTTATA [CACACA_negctrl_site397],9.79 ± 0.099
16,TAAAAGGAACAAAATTGTACTTAAAAGACAAAGTTA [XGTACX_site7661],11 ± 0.63
17,ACACAAAAATAAAAATGTACAAATTAAAAAAAATGA [XGTACX_site2083],10.8 ± 0.42
18,ATATATATATATATATATATATATATATTTATATAT [GTGCAC_negctrl_site180],9.65 ± 0.31
19,CTTTGTAGTTGGTCCACACACATATATGGAAGAATA [CACACA_site1280],11.4 ± 0.91

row,Sequence,gcPBM binding intensity (ln)
1,TAATAATAGAGACACACACACATTTTTAATAATACA [CACACA_site6691],10.1 ± 0.092
2,TATAAAATATATATCTGTACGTATTTTATTTTTTAT [XGTACX_site6257],11.4 ± 0.88
3,TATAAGCAAAGACACACACACATATAAATATAAATA [CACACA_site7740],10 ± 0.11
4,ATGTAGATAGATAGGGTGCTAAAAATAAGATTTATA [GTGCAC_site9602],10.1 ± 0.26
5,AAAAAAAAAAAAAAAACACACACAACACCCATACCT [CACACA_site9208],10.5 ± 0.32
6,AATACAATATAAAGGTGTACATATATATATATATAT [XGTACX_site68],11.4 ± 0.9
7,TATATAATTATTTGATGTACACTACAATGTATTTGT [XGTACX_site7991],11.4 ± 0.85
8,TTATGTTCTTAATGCACACTTATAAGTATCTTATAA [CACACA_site1394],10.7 ± 0.37
9,TACAAAATATTTTACACACACATATAAATACCTATA [CACACA_site7272],10.2 ± 0.11
10,TATATATATATATGAGTGCATATGTGTAATATAAAA,10.3 ± 0.21
11,ATTATTGTAATATTAGCACACATTACCTCACTACAA [CACACA_site2560],10.2 ± 0.21
12,ATTGTAAGGAAACACACACACATATATATGTATATA [CACACA_site676],10.06 ± 0.057
13,TATATGTTTAATTTCACACACAAATATGCATTTTAA [CACACA_site7881],9.98 ± 0.014
14,AAATAAATACTAGGCACACACACATATATATATATA [CACACA_site2079],10.2 ± 0.2
15,CGCACCCAAATATATACACACATATATATATATATA [CACACA_site1651],10.1 ± 0.23
16,ATATATATATATATATGTACGTATAATATATATATG [XGTACX_site2212],11.5 ± 0.85
17,ATTATTCAGGTAAAGTGTACAGGAGAAAAATAAAAT [XGTACX_site334],11.4 ± 0.72
18,AATAGGGTCATTCAAAAAAAAAAAAAATAATAATAC [CACACA_negctrl_site644],10.1 ± 0.29
19,GGAAAATGAAAACAAGGTACACATAAGAACAAACAA [XGTACX_site1221],11.4 ± 0.87
